Measurements reported in PubChem BioAssay AID1347417 (National Center for Advancing Translational Sciences (NCATS), 2020).
The whole screen tested about 120,000 compounds, of which about 5,300 (4.4%) were called active. Inconclusive means that the source gave no clear call. Such entries were picked first, then a sample of the others. Calls follow the shape of the dose curve; as a rule, active = well fitted inhibition curve with a large enough effect; inconclusive = small, poorly fitted or top-dose-only effect; inactive = no such curve, though single readings can be large or run the other way. Potencies of inconclusive entries are doubtful fits and often do not repeat.

assay: qHTS Primary assay for Inhibitors of Plasmodium falciparum Dd2 growth in vitro; also: nearly all actives have a fitted effect of over 65% in size; details: P. falciparum Dd2 growth, SYBR Green, 72 h; series mostly up to 28.9 µM
Summary of the method: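 Infected erythrocytes (Dd2, 0.3% parasitemia, 2.5% hematocrit final) are added to compound in RPMI-1640/Albumax II medium, grown 72 h at 37C in low oxygen, then lysed with saponin/Triton-X containing SYBR Green and read by fluorescence.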
Potency is read from the fitted curve at half-maximal effect; tags tell the direction and shape of the fitted curve.

Compound | Potency
COc1ccc(-c2nc(C3CC(=O)N(c4ccc(OC)c(OC)c4)C3)no2)cc1OC (centres undefined) | inconclusive: 17.8 µM [inhibitor, single point]
COc1ccc(-c2cc(C(F)(F)F)nc(S(=O)(=O)CCCC(=O)Nc3cccc(O)c3)n2)cc1OC | inconclusive: 8.91 µM [inhibitor, partial curve, poor fit]
Cc1cccc(C(=O)N2CCC(N3CC4CC(C3)[C@H]3CCCC(=O)N3C4)CC2)c1 (some centres undefined) | inactive
O=C(c1ccc(Cn2cccn2)o1)N1CCC2(CCNCC2)CC1 | inactive
CCOc1ccc(CCNC(=O)c2cn(CC)c3ccc(S(=O)(=O)N4CCc5ccccc5C4)cc3c2=O)cc1OCC | inconclusive: 20 µM [inhibitor, single point]
COc1ccc(-c2nc3n(n2)CCN(C(=O)c2ccc(Cl)cc2)C3)cc1 | inactive
O=C(Nc1ccccc1)C1CCN(C(=O)c2ncn3c2COC(c2ccccc2)C3)CC1 (centres undefined) | inactive
Cc1ccc(CNC(=O)c2ccc(Cn3c(=O)c4ccccc4n(CC(=O)Nc4ccc(C)cc4C)c3=O)cc2)cc1 | inconclusive: 11.2 µM [inhibitor, single point]
CCC(=O)N1CCc2cc(Br)cc(S(=O)(=O)N3CCC(C(=O)NCCCOC(C)C)CC3)c21 | inconclusive: 7.94 µM [inhibitor, partial curve, poor fit]
COC(=O)c1ccccc1NC(=O)c1ccc(COc2ccccc2Cl)o1 | inactive
COc1ccc(C2CC(=O)c3cc(-c4nc(-c5cccc(Cl)c5)cs4)c(=O)[nH]c3C2)cc1OC (centres undefined) | inconclusive: 11.2 µM [inhibitor, single point]
Cc1ccc2nc(CO[C@H]3CN(C4CCCCC4)C[C@H]3F)[nH]c2c1 | inconclusive: 10 µM [inhibitor, partial curve, poor fit]
Cc1noc(/C=C/c2cccs2)c1S(=O)(=O)N1CCC(C(=O)Nc2ccc(F)c(Cl)c2)CC1 | inconclusive: 11.2 µM [inhibitor, single point]
COc1ccc(C(F)(F)F)cc1NC(=O)c1sc2nc(-c3cccs3)ccc2c1N | inconclusive: 20 µM [inhibitor, partial curve, poor fit]
CC(=O)N1CCc2cc(Br)cc(S(=O)(=O)N3CCN(c4cccc(C(F)(F)F)c4)CC3)c21 | active: 10 µM
COc1ccc(-c2nc3c(c(=O)[nH]2)CCN(C(=O)COc2ccccc2C)C3)cc1 | inactive
COc1ccccc1NC(=O)C1=C(C)Nc2c(C(=O)Nc3ccc(F)cc3)cnn2C1c1cccc([N+](=O)[O-])c1 (centres undefined) | inconclusive: 1.58 µM [inhibitor, single point]
COc1cc(C(CC(=O)NCc2ccc(F)cc2)N2Cc3ccccc3C2=O)cc(OC)c1OC (centres undefined) | inconclusive: 17.8 µM [inhibitor, single point]
COc1ccccc1CNC(=O)C1CCCN(c2nc3ccccc3n3cccc23)C1 (centres undefined) | inconclusive: 17.8 µM [inhibitor, single point]
COCCN1CCCN(C(=O)c2cccc(F)c2)c2ccccc21 | inactive
O=C(C1CC1)N1CCc2cc(Br)cc(S(=O)(=O)N3CCN(c4cccc(C(F)(F)F)c4)CC3)c21 | inconclusive: 1.12 µM [inhibitor, full curve, poor fit]
CC(C)C[C@@H](NC(=O)[C@@]1(O)C[C@@H](O)[C@H](O)[C@@H](NC(=O)Nc2ccc(OC(F)(F)F)cc2)C1)C(N)=O | inactive

Compound | Potency
C1CNCC(c2nc(CCOCC3CCOCC3)no2)C1 (centres undefined) | inactive
Cc1cn2nc(-c3nc(C4CCCN(C(=O)Cc5ccsc5)C4)no3)cc2c(=O)[nH]1 (centres undefined) | inconclusive: 1.78 µM [inhibitor, full curve, poor fit]
CC#CCn1cc2c3c(cccc31)[C@H](CC(C)C)N[C@H](C(=O)N1CCN(CCO)CC1)C2 | active: 10 µM
COc1cccc(NC(=O)c2ccc3nc(CCc4ccccc4)oc3c2)c1 | inconclusive: 17.8 µM [inhibitor, single point]
O=c1n(-c2ccc(Cl)cc2)nc2n1CCN(Cc1ccc(C(F)(F)F)cc1)C2 | inactive
COc1ccc(Cl)cc1NC(=O)c1c(NCc2ccc(C)o2)sc2c1CCCCC2 | active: 14.1 µM
CCn1c(C(=O)NCCc2ccc(OC)c(OC)c2)cc2sc(Cl)cc21 | inactive
Cc1nc2scc(CC(=O)NCc3ccco3)n2c(=O)c1-c1cc(C)n(-c2ccccc2F)n1 | inactive
O=C(CSc1ccccc1)N1CCc2c([nH]c3ccccc23)C1c1ccc(F)cc1 (centres undefined) | inconclusive: 11.2 µM [inhibitor, single point]
CC1CCN(S(=O)(=O)c2cn(CC(=O)Nc3cccc(C(F)(F)F)c3)c(=O)c3ccccc23)CC1 | inconclusive: 2.82 µM [inhibitor, full curve, poor fit]
COC(=O)[C@@H](C)NC(=O)[C@H]1CN(S(=O)(=O)c2ccccc2)CCN1S(=O)(=O)c1ccccc1 | inactive
CCOC(=O)c1cnn(-c2ccc(C(=O)Nc3cc(OC)c(OC)c(OC)c3)cc2)c1N | inconclusive: 11.2 µM [inhibitor, partial curve, poor fit]
COc1cccc(C(=O)Nc2cccc(C(=O)OCc3cc(=O)n4nc(C5CC5)sc4n3)c2)c1 | inconclusive: 3.98 µM [inhibitor, single point]
CCCc1cc(C(=O)N[C@@H]2CCOC[C@H]2OCCO)n(C)n1 | inactive
Cc1ccc2nc(N(Cc3cccnc3)C(=O)COc3ccccc3)sc2c1 | inconclusive: 10 µM [inhibitor, single point]
Cn1cccc1CN1CCCCCCNC(=O)[C@@H]2CCC[C@@H]21 | inconclusive: 11.2 µM [inhibitor, single point]
C=CCC1(CO)CCCN(Cc2nc(C)cc(-c3ccccc3)n2)C1 (centres undefined) | active: 8.91 µM
CC1(c2ccccc2)N(Cc2ccc(O)cc2)C(=O)OC12CCN(C(=O)c1cccnc1)CC2 (centres undefined) | inconclusive: 3.98 µM [inhibitor, single point]
CCCCN(C)CCCNC(=O)C1CCN(c2nc3ccc(CC)cc3s2)CC1 | active: 11.2 µM
Cc1cc(=O)n(CC(=O)Nc2ccccc2C)c(N(C)Cc2ccccc2)n1 | inconclusive: 3.98 µM [inhibitor, single point]
CC(C)c1ccc(NC(=O)C2CCCN(S(=O)(=O)c3cccc4cccnc34)C2)cc1 (centres undefined) | inconclusive: 17.8 µM [inhibitor, single point]
O=C(C1CCCC1)N1CCC2(CCCN(Cc3cccc(F)c3F)C2)C1 (centres undefined) | inconclusive: 10 µM [inhibitor, single point]

Compound | Potency
COC(=O)c1c(-c2ccc(Cl)cc2)noc1N1CCN(c2ccc(C)cc2C)CC1 | active: 8.91 µM
CC1=C(c2ccc(C)c(C)c2)S(=O)(=O)N(Cc2ccc(C(=O)NCc3cccc(C)c3)cc2)C1=O | inconclusive: 8.91 µM [inhibitor, single point]
CCNC(=O)[C@@H]1C[C@H](N)CN1C(=O)Cc1ccc(OC)cc1OC | inactive
CCOC(=O)CC(NS(=O)(=O)c1ccc2[nH]c3c(c2c1)CCCC3)c1ccccc1Cl (centres undefined) | inconclusive: 11.2 µM [inhibitor, single point]
COc1ccc(-c2nn3c(=O)cc(CN4CCN(C(=O)c5ccc(C(C)(C)C)cc5)CC4)nc3s2)cc1 | inconclusive: 2.51 µM [inhibitor, full curve, poor fit]
COc1cccc(NC(=O)c2ccnc(-c3nnc4ccc(N(C)C)nn34)c2)c1 | inconclusive: 0.631 µM [inhibitor, partial curve, poor fit]
Cc1c(CN2CCCC23CCN(c2ccc(C(F)(F)F)cn2)CC3)cc(C#N)n1C | inconclusive: 10 µM [inhibitor, partial curve]
Cc1ccc(Oc2c(C(F)(F)F)oc3c(CN4CCCCC4C)c(O)ccc3c2=O)cc1 (centres undefined) | inactive
COCC(=O)Nc1ccc([C@@H](O)[C@H]2COCC(=O)N2Cc2ccc(C(F)(F)F)cc2)cc1 | active: 12.6 µM
COc1ccc(C(=O)NCC(c2cccnc2)N2CCc3ccccc32)cc1 (centres undefined) | inconclusive: 11.2 µM [inhibitor, partial curve]
CCOC(=O)c1c(N)n(-c2ccc(C)c(Cl)c2)c2nc3ccccc3nc12 | inconclusive: 7.94 µM [inhibitor, partial curve]
Cc1ccc(Nc2c(-c3c[nH]c4ccccc34)nc3cc(C)ccn23)cc1 | inconclusive: 17.8 µM [inhibitor, single point]
O=C(C1CCCC1)N1CCC(N2C(=O)C(OCC3CC3)C23CCCCC3)CC1 (centres undefined) | inactive
CCOc1ccccc1NC(=O)CSc1nc2c(oc3ccccc32)c(=O)n1-c1ccc(C)c(C)c1 | inconclusive: 17.8 µM [inhibitor, single point]
CCCN1CCCCC12Cc1ccccc1CN(C(=O)CC)C2 (centres undefined) | inconclusive: 10 µM [inhibitor, single point]
CN1CC(=O)N(C2CCCC2)Cc2c(NCC3CC3)ncnc21 | inactive
c1ccc(-c2cn3c(n2)CO[C@@H](CNCc2ccc4ccccc4n2)C3)cc1 | inconclusive: 1.12 µM [inhibitor, partial curve, poor fit]
O=C(NCc1ccc(F)cc1)c1nc(-c2ccc(Cl)nc2)c2ccccn12 | inconclusive: 11.2 µM [inhibitor, partial curve, poor fit]
Cc1ccc(Cl)cc1-n1ncc2c(NC3CCCCCC3)ncnc21 | inconclusive: 11.2 µM [inhibitor, single point]
Cc1ccsc1C(=O)N1CCC(CCC(=O)N2CCC(Cc3ccccc3)CC2)CC1 | inactive
